Only a part is listed here, and it is no random draw. The list includes weakly bound sequences.
Each sequence was assayed against T1, GST-Nv-NF-kB (Cys allele) (UniProt E5G601) (assay: protein-binding microarray (PBM)). Conditions: PBM: ~300 nM protein, 6 mM HEPES pH 7.8, 80 mM KCl, 0.5 mM EDTA, 0.5 mM EGTA, 6% glycerol, 35 ng/ul poly-dIdC, 1% milk, 1 h, room temperature; Ap Aiptasia and Nv Nematostella (sea anemones) / Co Capsaspora / Aq Amphimedon (sponge) / Dm Drosophila / Hu human; RHD is the Rel homology domain; high values mean tight binding; most listed sequences are background and not binding sites; double strand, one strand shown.
T1 sequence: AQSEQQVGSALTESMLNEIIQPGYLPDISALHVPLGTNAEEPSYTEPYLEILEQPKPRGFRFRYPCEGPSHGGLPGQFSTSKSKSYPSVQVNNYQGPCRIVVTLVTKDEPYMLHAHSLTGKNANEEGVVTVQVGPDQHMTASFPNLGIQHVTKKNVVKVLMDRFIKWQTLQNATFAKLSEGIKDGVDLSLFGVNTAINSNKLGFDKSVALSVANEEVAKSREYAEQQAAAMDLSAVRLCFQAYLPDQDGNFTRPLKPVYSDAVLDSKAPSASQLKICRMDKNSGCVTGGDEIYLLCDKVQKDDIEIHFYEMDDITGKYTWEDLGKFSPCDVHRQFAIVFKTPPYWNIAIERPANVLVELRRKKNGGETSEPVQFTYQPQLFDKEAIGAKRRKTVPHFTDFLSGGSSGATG

| Sequence | binding signal |
| --- | --- |
| CCGATTAACATCAGGAAATGGGATGATGTTAATCGGGTCTTGATTCGCTTGACGCTGCTG | -0.0611 z-score |
| CCGATTAACATCATCGCGCGACATGATGTTAATCGGGTCTTGATTCGCTTGACGCTGCTG | 0.251 z-score |
| CCGATTAACATCATCATCTCCATTGATGTTAATCGGGTCTTGATTCGCTTGACGCTGCTG | 0.12 z-score |
| CCGATTAACATCAATCCTACAGGTGATGTTAATCGGGTCTTGATTCGCTTGACGCTGCTG | -0.269 z-score |
| CCGATTAACATCAAAATTCGTCATGATGTTAATCGGGTCTTGATTCGCTTGACGCTGCTG | -0.14 z-score |
| CCGATTAACATCACAGCGAATCCTGATGTTAATCGGGTCTTGATTCGCTTGACGCTGCTG | -0.264 z-score |
| CCGATTAACATCAGGAAATTTGATGATGTTAATCGGGTCTTGATTCGCTTGACGCTGCTG | 0.642 z-score |
| CCGATTAACATCAGCACCCTCCATGATGTTAATCGGGTCTTGATTCGCTTGACGCTGCTG | 0.59 z-score |
| CCGATTAACATCATATTCGTAGCTGATGTTAATCGGGTCTTGATTCGCTTGACGCTGCTG | -0.285 z-score |
| CCGATTAACATCAGTTGCTCTCATGATGTTAATCGGGTCTTGATTCGCTTGACGCTGCTG | 0.0371 z-score |
| CCGATTAACATCAAATGCAGTTTTGATGTTAATCGGGTCTTGATTCGCTTGACGCTGCTG | -0.752 z-score |
| CCGATTAACATCACGCCGTCGGATGATGTTAATCGGGTCTTGATTCGCTTGACGCTGCTG | -0.393 z-score |
| CCGATTAACATCACCATCTGACCTGATGTTAATCGGGTCTTGATTCGCTTGACGCTGCTG | -0.254 z-score |
| CCGATTAACATCATGCCGGTATATGATGTTAATCGGGTCTTGATTCGCTTGACGCTGCTG | -0.641 z-score |
| CCGATTAACATCATAAAAGTTCTTGATGTTAATCGGGTCTTGATTCGCTTGACGCTGCTG | 0.0857 z-score |
| CCGATTAACATCATTGCCTGGTGTGATGTTAATCGGGTCTTGATTCGCTTGACGCTGCTG | -0.229 z-score |
| CCGATTAACATCAGAAAATCCGCTGATGTTAATCGGGTCTTGATTCGCTTGACGCTGCTG | 0.298 z-score |
| CCGATTAACATCAGACTATGCGGTGATGTTAATCGGGTCTTGATTCGCTTGACGCTGCTG | -0.539 z-score |
| CCGATTAACATCAGCGAAATTCCTGATGTTAATCGGGTCTTGATTCGCTTGACGCTGCTG | -0.356 z-score |
| CCGATTAACATCATAGGAATGATTGATGTTAATCGGGTCTTGATTCGCTTGACGCTGCTG | 0.498 z-score |

| Sequence | binding signal |
| --- | --- |
| CCGATTAACATCAGATTCTCATCTGATGTTAATCGGGTCTTGATTCGCTTGACGCTGCTG | 0.925 z-score |
| CCGATTAACATCACGATAGGCCGTGATGTTAATCGGGTCTTGATTCGCTTGACGCTGCTG | -0.212 z-score |
| CCGATTAACATCAATGGACCGTTTGATGTTAATCGGGTCTTGATTCGCTTGACGCTGCTG | 0.481 z-score |
| CCGATTAACATCACAGAGTTTCCTGATGTTAATCGGGTCTTGATTCGCTTGACGCTGCTG | -0.798 z-score |
| CCGATTAACATCACAGGAATTTCTGATGTTAATCGGGTCTTGATTCGCTTGACGCTGCTG | 0.602 z-score |
| CCGATTAACATCAATCGCCTCTCTGATGTTAATCGGGTCTTGATTCGCTTGACGCTGCTG | 0.515 z-score |
| CCGATTAACATCACCGTTCCGATTGATGTTAATCGGGTCTTGATTCGCTTGACGCTGCTG | -0.0273 z-score |
| CCGATTAACATCAGCTTCGAGTCTGATGTTAATCGGGTCTTGATTCGCTTGACGCTGCTG | -0.781 z-score |
| CCGATTAACATCAGACGCTATAATGATGTTAATCGGGTCTTGATTCGCTTGACGCTGCTG | 0.0067 z-score |
| CCGATTAACATCATTACGCCACGTGATGTTAATCGGGTCTTGATTCGCTTGACGCTGCTG | 0.149 z-score |
| CCGATTAACATCAGGTTCATACCTGATGTTAATCGGGTCTTGATTCGCTTGACGCTGCTG | 0.458 z-score |
| CCGATTAACATCAAGTATGTGAATGATGTTAATCGGGTCTTGATTCGCTTGACGCTGCTG | 0.137 z-score |
| CCGATTAACATCAATGAATTCGATGATGTTAATCGGGTCTTGATTCGCTTGACGCTGCTG | -0.909 z-score |
| CCGATTAACATCAGGCAGTTCCATGATGTTAATCGGGTCTTGATTCGCTTGACGCTGCTG | -0.0128 z-score |
| CCGATTAACATCAGGCCCGTTTGTGATGTTAATCGGGTCTTGATTCGCTTGACGCTGCTG | 0.0462 z-score |
| CCGATTAACATCATTCGACATGTTGATGTTAATCGGGTCTTGATTCGCTTGACGCTGCTG | -0.384 z-score |
| CCGATTAACATCACGGAAAAACCTGATGTTAATCGGGTCTTGATTCGCTTGACGCTGCTG | 0.151 z-score |
| CCGATTAACATCATACCTATAGTTGATGTTAATCGGGTCTTGATTCGCTTGACGCTGCTG | 0.201 z-score |
| CCGATTAACATCATAAGGACGTATGATGTTAATCGGGTCTTGATTCGCTTGACGCTGCTG | 0.309 z-score |

From publication PMC5700166
